# Experimental data reported in ChEMBL document CHEMBL4888484, “Replenishing the malaria drug discovery pipeline: Screening and hit evaluation of the MMV Hit Generation Library 1 (HGL1) against asexual blood stage Plasmodium falciparum ,using a nano luciferase reporter read-out” (2022).
# Among all 150,000 compounds or so, about 540 (0.36%) showed an effect of 50% or more. Some of the results follow.
# Tested on: Plasmodium falciparum
# Experiment: Primary screen in NF54 nanoGlo assay, in single point, at 2uM, 72h; a lower Z score goes with more inhibition
# Type: functional, Erythrocyte
# Details: timepoint 72 hour
smiles,measurement,setting,value
CCCCc1nc(CN2CCc3onc(-c4ccc5c(c4)OCO5)c3C2)c[nH]1,% Inhibition,,-12%
same,Z score,,1.64
CC#CCN1CCC=C(CCNC(=O)C2CCCCC2)C1,% Inhibition,,8%
same,Z score,,-1.5
CCc1nc(C)c(C(=O)Nc2nnc(C(F)(F)F)[nH]2)o1,% Inhibition,,30%
same,Z score,,-3.39
N[C@@H](Cc1c[nH]cn1)c1ncnn1-c1ccc(C(F)(F)F)cc1,% Inhibition,,-8%
same,Z score,,1.28
CCC(=O)Nc1ccc(C(=O)Cn2cc(Br)cn2)cc1,% Inhibition,,-14%
same,Z score,,2.93
O=C(Nc1ccccc1)c1ccc(=O)n(CCC(=O)N2CCCCCC2)n1,% Inhibition,,-1%
same,Z score,,0.09
NC(=O)CN(CCCC1CCCCC1)CC(N)=O,% Inhibition,,-5%
same,Z score,,0.91
COc1ccc(NC(=O)C(=O)Nc2c(C)n[nH]c2C)c(OC)c1,% Inhibition,,-15%
same,Z score,,1.5
COc1cc(C)sc1C(=O)NCCc1sc(N(C)C)nc1C,% Inhibition,,-5%
same,Z score,,0.72
CCCc1nc(C(=O)NC(C)(C)c2nnc(N)s2)cs1,% Inhibition,,-9%
same,Z score,,1.03
CCCC[C@H]1C(=O)N(C)CCN1C(=O)CCc1scnc1C,% Inhibition,,-3%
same,Z score,,0.37
Cc1cc(C(=O)Nc2nc3ccccc3[nH]2)c(C)o1,% Inhibition,,0%
same,Z score,,-0.02
CNc1nc(NCc2ccc3[nH]c(-c4ccccc4F)c(C)c3c2)ncc1F,% Inhibition,,-18%
same,Z score,,2.15
CCc1nc(NC(=O)CN(C)CC[C@H]2CCCCN2C)sc1C,% Inhibition,,-13%
same,Z score,,1.37
Cn1c(=O)c2c(ncn2CC(=O)N2Cc3cnnn3Cc3ccccc32)n(C)c1=O,% Inhibition,,13%
same,Z score,,-1.65
Cc1nn(C)c(C)c1S(=O)(=O)NC(=O)CCc1ccco1,% Inhibition,,0%
same,Z score,,-0.04
O=C(CN1CCCCCC1)NC1CCCC1,% Inhibition,,-9%
same,Z score,,1.47
Cc1cc(OCC2CC2)n2nc(C)cc2n1,% Inhibition,,-12%
same,Z score,,1.52
Cc1ccc(C)c(C2CN(C(=O)CCC3CCNCC3)C(C)CO2)c1 (configuration not stated),% Inhibition,,-7%
same,Z score,,1.08
Cc1cccc(NC(=O)Cn2cnc3c(C(N)=O)nsc3c2=O)c1C,% Inhibition,,-8%
same,Z score,,1.08
CCOc1ccnc(NCc2cnc(C)cn2)n1,% Inhibition,,-10%
same,Z score,,0.96
O=C(NC1CCN(c2cnsn2)CC1)[C@@H]1CCCO1,% Inhibition,,-13%
same,Z score,,1.69
CCCCCc1nc(Cn2ccnn2)n(Cc2c(F)cccc2Cl)n1,% Inhibition,,-3%
same,Z score,,0.5
CCN(C(=O)CN1CCC[C@H]1c1nnc2ccccn12)c1ccccc1,% Inhibition,,-18%
same,Z score,,1.66
CC1CCCN(C(=O)c2ccnc(-c3ccccc3)c2N)C1C(=O)O (configuration not stated),% Inhibition,,-6%
same,Z score,,0.84
CC1CC(C)CN(C(=O)Cn2ccc(=O)n(C)c2=O)C1 (configuration not stated),% Inhibition,,-9%
same,Z score,,1.62
OC[C@H]1CCCN(c2nc(-c3ccc(Oc4ccccc4)cc3)nc3ccccc23)C1,% Inhibition,,-10%
same,Z score,,1.4
N#Cc1ccc(N2CCC(O)(Cc3cccc(F)c3)CC2)cn1,% Inhibition,,-8%
same,Z score,,1.52
CCOC(=O)Cc1cnc(N(C)C(=O)c2cccc(CC#N)c2)s1,% Inhibition,,-10%
same,Z score,,1.93
OC[C@H]1CCCCCN1Cc1ccnc2ccccc12,% Inhibition,,3%
same,Z score,,-0.63
CCN1C[C@@H](C(=O)Nc2ccncc2C(C)=O)CC1=O,% Inhibition,,2%
same,Z score,,-0.43
O=S(=O)(NCc1cc2ccccc2o1)c1ccc2ccccc2c1,% Inhibition,,-10%
same,Z score,,1.56
Cc1cc(N(C)C(=O)c2nn(C(C)C)cc2Br)ccn1,% Inhibition,,0%
same,Z score,,0
CN(Cc1ccccc1)C1(CNC(=O)C2CCOCC2)CCC1,% Inhibition,,-13%
same,Z score,,1.56
O=C(CC1CCCO1)NCC1CC12CCc1ccccc12 (configuration not stated),% Inhibition,,-7%
same,Z score,,0.96
CC(C)(C)n1ncc2c1NC(=O)C[C@@H]2c1ccc(F)cc1Cl,% Inhibition,,30%
same,Z score,,-3.37
Cc1ccc(S(=O)(=O)NCc2nnc(C(=O)Nc3ccccc3F)s2)cc1,% Inhibition,,28%
same,Z score,,-3.23
O=C([C@H]1CCCN(c2[nH]cnc3ncnc2-3)C1)N1CCN(c2ccccc2)CC1,% Inhibition,2 µM,-3%
same,Z score,2 µM,-3.22
CCc1nc(C)c(CN2CCC[C@H](CN(C)S(C)(=O)=O)C2)o1,% Inhibition,,0%
same,Z score,,0.01
O=C(NC1CCC(CO)CC1)C1CC=CC1 (configuration not stated),% Inhibition,,-1%
same,Z score,,0.12
Cc1ccc2nc(NC(=O)CNC(=O)C3CCCCC3)sc2c1,% Inhibition,,31%
same,Z score,,-3.52
O=C(Nc1ccc(-c2nc3ccccc3s2)cc1Cl)c1ccccn1,% Inhibition,,-12%
same,Z score,,1.08
O=C(CC1CCC(F)(F)CC1)Nc1cc2cc[nH]c2cn1,% Inhibition,,-6%
same,Z score,,1.21
COC(=O)[C@H](C)N(C(=O)CO)c1c(C)cccc1C,% Inhibition,,39%
same,Z score,,-4.97
CCc1nc(C)c(NC(=O)Nc2cnn(CCF)c2)s1,% Inhibition,,-3%
same,Z score,,0.41
O=C(C[C@H]1CCCO1)N(Cc1ccccn1)c1ccc(F)cc1,% Inhibition,,0%
same,Z score,,0.05
Cc1cc(C(=O)N2CCC3(CC2)CC(=O)N(Cc2ccccc2)C3)ccc1F,% Inhibition,,-13%
same,Z score,,1.3
COc1ccc(CC(=O)N2CCc3ncccc32)nc1,% Inhibition,,-10%
same,Z score,,1.64
CCCc1cc(C(=O)N[C@H]2CCCC[C@@H]2OCc2ccccc2)[nH]n1,% Inhibition,,-18%
same,Z score,,2.29
CC(=O)N(C)c1ccccc1NC(=O)c1ccccc1C,% Inhibition,,-8%
same,Z score,,1.12
CCOc1ccc(-c2csc(=O)[nH]2)cc1,% Inhibition,,-4%
same,Z score,,0.45
Cc1cc(F)ccc1-c1cccc(C(=O)N[C@H]2CC[C@@H](N)C2)c1,% Inhibition,,-9%
same,Z score,,1.22
O=C(NCc1cccnc1)N1CCC([C@H](O)C(F)(F)F)CC1,% Inhibition,,-4%
same,Z score,,0.5
Cc1cccc(C(=O)Nc2cc(C(=O)O)ccc2N2CCC(CCN3CCCCC3)CC2)c1,% Inhibition,,-5%
same,Z score,,0.82
CCCc1cnc(C)nc1NC[C@H]1CCN(c2cnn(C)c(=O)c2)C1,% Inhibition,,-8%
same,Z score,,1.46
CC(C)n1cc(C(=O)N2CCOc3ccc(CN4CCN(c5ccccc5)CC4)cc3C2)cn1,% Inhibition,,2%
same,Z score,,-0.28
COc1ccc(-c2cnc3[nH]ccc3c2)cc1C[C@@H](CN)CO,% Inhibition,,-19%
same,Z score,,2.66
Cc1ccc(N[C@@](C)(C(=O)NCC(=O)NC(C)C)c2ccccc2)cc1,% Inhibition,,-9%
same,Z score,,1.03
CCN(c1ccccc1)S(=O)(=O)NC(=O)C1CCC(F)(F)CC1,% Inhibition,,-2%
same,Z score,,0.26
Cc1ccc(Cl)c(-c2nccn2C2CCOCC2)c1F,% Inhibition,,0%
same,Z score,,-0.06
CCCc1ccc(S(=O)(=O)N2CCc3c(c(-c4nnc(-c5ccc(C)cc5)o4)nn3C)C2)cc1,% Inhibition,,-14%
same,Z score,,1.58
COc1ccc(C2C(C(=O)N3CCN(c4ccccn4)CC3)c3ccccc3C(=O)N2C2CCCCC2)cc1 (configuration not stated),% Inhibition,,0%
same,Z score,,0.03
Cn1cc(C(=O)N2CCC[C@H](c3nc4ccccc4s3)C2)c(=O)[nH]c1=O,% Inhibition,,2%
same,Z score,,-0.24
Cc1ccc(CCN(C[C@H]2CCCO2)C(=O)c2cc[nH]c(=O)c2)cc1,% Inhibition,,-8%
same,Z score,,1.05
COCCNC(=O)CNC(=O)c1cccc(Br)c1,% Inhibition,,-18%
same,Z score,,3.52
C#CCNC(=O)NCCNS(=O)(=O)c1cc(C)ccc1C,% Inhibition,,-13%
same,Z score,,1.16
O[C@@]1(CCNc2nc3cc(Br)ccc3o2)CCCOC1,% Inhibition,,-3%
same,Z score,,0.5
COCCN1C[C@H]2CN(Cc3nccn3C)CCN2C1=O,% Inhibition,,18%
same,Z score,,-2.11
CC(=O)Nc1ccc2nc(N3CCC(C(=O)NC4CC4)CC3)cc(C)c2c1,% Inhibition,,8%
same,Z score,,-1.23
Cc1oc2ccc(OCc3ccccc3)cc2c1C(=O)N1C[C@H](O)C[C@H]1C(=O)O,% Inhibition,,-11%
same,Z score,,2.23
Cc1c(Cl)cccc1-n1nc(C)c2c(C)cc(OCC(=O)NCc3ccc4c(c3)OCO4)nc21,% Inhibition,,-14%
same,Z score,,1.54
O=C(NCC1CCN(C(=O)[C@H]2CCOC2)CC1)c1ccoc1,% Inhibition,,-16%
same,Z score,,1.68
CC1(C)C2CCC(C2)C1CC1OCC(C[N+]2(Cc3ccccc3)CCCCC2)O1 (configuration not stated),% Inhibition,,-7%
same,Z score,,1.37
CCn1cc(C(=O)N2CCC[C@H]2C(=O)N2CCOCC2)c(C)n1,% Inhibition,,-20%
same,Z score,,1.78
CN1CCN(c2ccccc2NC(=O)c2ccc3ccccc3c2)CC1,% Inhibition,,-13%
same,Z score,,1.44
FC(F)(F)c1cnc(Cc2ccc(OC[C@H]3CC3(Cl)Cl)cc2)c(Cl)c1,% Inhibition,,34%
same,Z score,,-1.07
O=C(Nc1cnc(-n2ccnc2)nc1)c1ccccn1,% Inhibition,,-5%
same,Z score,,0.76
Cc1cc(F)ccc1Cc1noc([C@@]2(C)CCNC(=O)C2)n1,% Inhibition,,8%
same,Z score,,-1.4
Cc1nn(CCNS(=O)(=O)CCC(F)(F)F)c(C)c1-c1ccsc1,% Inhibition,,-1%
same,Z score,,0.09
CCN(C(=O)C1CCN(c2cc(=O)n(C)c(=O)n2C)CC1)c1cccc(Cl)c1,% Inhibition,,-19%
same,Z score,,2.96
CN(Cc1cnc2ccccc2n1)C(=O)CCN(C)[C@H]1CCS(=O)(=O)C1,% Inhibition,,5%
same,Z score,,-0.81
CCCc1ccc2oc(-c3nc(C)no3)c(C)c2c1,% Inhibition,,6%
same,Z score,,-1.22
O=C(CCc1nnc2ccc(N3CCCCC3)nn12)Nc1ccc2c(c1)OCO2,% Inhibition,,-15%
same,Z score,,2.5
O=C1COc2ccc3c(c2)CCN(C(=O)c2ccc(O)cc2)[C@H]3c2cccc(c2)OCCCN1,% Inhibition,,-10%
same,Z score,,1.83
O=C1[C@@H](n2nnn(-c3cccs3)c2=O)CCN1CC(F)(F)F,% Inhibition,,-8%
same,Z score,,1.48
CN(CC(=O)NC1Cc2ccccc2C1)Cc1ccncc1,% Inhibition,,2%
same,Z score,,-0.21
